This is an account of results in US20020193575A1 (published 2002).

For the experiment, the target named is T1, recombinant E. coli human IL4 (non-glycosylated) (human, UniProt P05112 25-153).
T1 sequence (looked up): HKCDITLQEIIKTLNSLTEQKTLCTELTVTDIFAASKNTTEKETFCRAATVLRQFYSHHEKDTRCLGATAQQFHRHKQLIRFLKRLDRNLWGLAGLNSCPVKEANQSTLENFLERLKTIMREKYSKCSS
Put plainly: cell-based or functional assay.

B1: murine MAb 3B9 (antibody, V domains shown)
VH: QVTLKESGPGILQPSQTLSLTCSFSGFSLSTSGMGVSWIRQPSGKGLEWLAHIYWDDDKRYNPSLKSRLTISKDTSSNQVFLKITSVDTADTATYYCARRETVFYWYFDVWGAGTTVTVSS
VL: DIVLTQSPASLAVSLGQRATISCKASQSVDYDGDSYMNWYQQKPGQPPKLLIYAASNLESGIPARFSGSGSGTDFTLNIHPVEEEDAATYYCQQSNEDPPTFGGGTKLEIKR
With B1, the “CD23 induction on tonsil B lymphocytes, IC50” value is 0.136 nM.
